Among the data in PubChem BioAssay AID1745853 (National Center for Advancing Translational Sciences (NCATS), 2022) are activity change, negative = inhibition values, retold here.

The other results are listed elsewhere or left out. Further columns of the screen follow, without active or inactive calls. Square brackets hold non-standard residues; d marks the D form. Peptide text beside a SMILES is read from it. ξ: configuration not given here. ξPhe(βξ-Me) = CC(c1ccccc1)C(N)C(=O)O; GABA = NCCCC(=O)O

Common to all, as to assay: Primary Screen for Target Class Profiling of Small Molecule Inhibitors of Methyltransferases
Experiment [1] concerns the target Glycine N-methyltransferase (Homo sapiens) (UniProt Q14749). The conditions noted are these: purified enzyme, MTase-Glo SAH luminescence; measured here: GNMT inhibition; at 40 µM; stronger effect = lower value. In short, it runs like this: (§1)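 Each enzyme was assayed with SAM and its substrate. SAH formation detected by MTase-Glo luminescence; single-point 40 uM screen[…].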

In experiment [2] the target is Guanidinoacetate N-methyltransferase (Homo sapiens) (UniProt Q14353). Particulars: purified enzyme, MTase-Glo SAH luminescence; measured here: GAMT inhibition; at 40 µM; stronger effect = lower value. In short, it runs like this:
as §1

Experiment [3] concerns the target Histamine N-methyltransferase (Homo sapiens) (UniProt P50135). The conditions noted are these: purified enzyme, MTase-Glo SAH luminescence; measured here: HNMT inhibition; at 40 µM; stronger effect = lower value. The essentials: as §1
Experiment [4] deals with Nicotinamide N-methyltransferase (Homo sapiens) (UniProt P40261). The conditions noted are these: purified enzyme, MTase-Glo SAH luminescence; measured here: NNMT inhibition; at 40 µM; stronger effect = lower value. In short, it runs like this:
as §1

Experiment [5] addresses Phenylethanolamine N-methyltransferase (Homo sapiens) (UniProt P11086). Particulars: purified enzyme, MTase-Glo SAH luminescence; measured here: PNMT inhibition; at 40 µM; stronger effect = lower value. In short, it runs like this: as §1
On the % scale 0 is the no-effect control and ±100 the full control effect.

On to `CC1CCN(S(=O)(=O)c2ccc3c(ccn3CC(=O)NC3CCCC3)c2)CC1`, for which the activity change, negative = inhibition in experiment [1] is 2.52%; in experiment [2], 4.67%; in experiment [3] it was 6.52%; in experiment [4], -0.587%; in experiment [5], 2.18%.
With `CCCNC(=O)N1Cc2c(sc3c2CCCC3)-n2cccc2C1c1ccc(Cl)cc1` (stereo not drawn), the activity change, negative = inhibition in experiment [1] is 1.33%; in experiment [2] it was 0%; in experiment [3] it was 4.61%; in experiment [4], 1.06%; in experiment [5], 3.56%.
Consider `C[C@@H](NC(=O)C(=O)c1c[nH]c2ccc([N+](=O)[O-])cc12)c1ccccc1`, for which the activity change, negative = inhibition in experiment [1] was 2.29%; in experiment [2], -4.92%; in experiment [3], 2.59%; in experiment [4], -16.7%; in experiment [5] it was -2.88%.
On to `Cc1ccccc1CN1CC(=O)N(Cc2ccccc2)c2ccccc2S1(=O)=O`, for which the activity change, negative = inhibition in experiment [1] is 1.4%; in experiment [2], 7.1%; in experiment [3], -3.89%; in experiment [4], -3.59%; in experiment [5], -2.54%.
Take `CSCC(=O)N[C@H]1CCN2C(=O)c3cc(-c4ccc(Cl)cc4)ccc3NC(=O)[C@H]12`: the activity change, negative = inhibition in experiment [1] was -14.7%; in experiment [2], -30.2%; in experiment [3], -11.2%; in experiment [4], -16.7%; in experiment [5], -16%.
Take `CCN1C(=O)c2cc(C(=O)NCCN3CCCCC3)nn2CC1(C)C(=O)NC1CCCC1` (stereo not drawn): the activity change, negative = inhibition in experiment [1] was determined as 9.01%; in experiment [2], 2.73%; in experiment [3], 8.05%; in experiment [4] it was 10.1%; in experiment [5], 6.07%.
As to `Cc1ccc(CNC(=O)N2CCCC3(CCC(=O)N(CC4CC4)C3)C2)cc1` (stereo not drawn), the activity change, negative = inhibition in experiment [1] is -0.731%; in experiment [2] it was -3.5%; in experiment [3] it was -0.229%; in experiment [4] it was -4.16%; in experiment [5], -3.72%.
Regarding `Cc1cccc(Cn2nc3n(CC(C)C)c(=O)c4ccc(C(=O)NCC(C)C)cc4n3c2=O)c1`, the activity change, negative = inhibition in experiment [1] was 2.84%; in experiment [2] it was 0.519%; in experiment [3], 1.06%; in experiment [4], -2.66%; in experiment [5] it was 2.9%.
Consider `CCc1cccc(N2C(=O)c3cc(-c4ccc(OC)cc4)nn3CC2(C)C(=O)NCc2ccccc2)c1` (stereo not drawn), for which the activity change, negative = inhibition in experiment [1] turned out to be 4.75%; in experiment [2], 0.438%; in experiment [3], 11.2%; in experiment [4] it was 11.8%; in experiment [5], 3.15%.
For `CCN(CCCNC(=O)CCc1nnc2n(CCC(C)C)c(=O)c3ccccc3n12)c1cccc(C)c1` the same measures were -9.62%, 4.02%, -3.02%, -16.5% and -4.04%.
Take `CC1NC(=O)CCCNC(=O)C(Cc2c[nH]c3ccccc23)NC(=O)C(C)NC(=O)C(C(C)C)NC(=O)C(C(C)c2ccccc2)NC(=O)C(C(C)C)NC1=O` (stereo not drawn) (cyclo([GABA]AV[ξPhe(βξ-Me)]VAW); configuration not given here): the activity change, negative = inhibition in experiment [1] was -2.34%; in experiment [2], -4.33%; in experiment [3], 6.76%; in experiment [4] it was -17.5%; in experiment [5], -12.2%.
Turning to `Cc1ccc(Cn2c(=O)c3ccccc3n3c(CCC(=O)N4CCN(c5ccccn5)CC4)nnc23)cc1`, the activity change, negative = inhibition in experiment [1] was -16.6%; in experiment [2], 0%; in experiment [3] it was -3.17%; in experiment [4], -5.47%; in experiment [5] it was -3.36%.
Turning to `CC(C)CN(C[C@@H](O)[C@H](Cc1ccccc1)NC(=O)O[C@H]1CO[C@H]2OCC[C@H]21)S(=O)(=O)c1ccc(N)cc1`, the results for the activity change, negative = inhibition in experiment [2], in experiment [4] and in experiment [5] were -3.6%, -14.2% and -7.75%, respectively.
As to `CC1(C(=O)NC2CCCCCCC2)Cn2c(ccc2-c2ccccc2)C(=O)N1CCc1cccs1` (stereo not drawn), the activity change, negative = inhibition in experiment [1] was -0.167%; in experiment [2], 0%; in experiment [3], 6.38%; in experiment [4], 1.13%; in experiment [5], 4.65%.
For `CCc1cc2c(cc3n2CC(C)(C(=O)NC2CCCCC2)N(C2CCCCCC2)C3=O)s1` (stereo not drawn) the same measures were -1.19%, 5.47%, 0.909%, 5.49% and -1.24%.
Turning to `O=C(NCCCN1CCc2ccccc2C1)C1CCCCC(=O)N1Cc1ccccc1` (stereo not drawn), the activity change, negative = inhibition in experiment [1] is -6.46%; in experiment [2], -1.3%; in experiment [3], -6.97%; in experiment [4], -0.621%; in experiment [5], -9.4%.
For `O=C(CCCc1nnc2n3nc(-c4ccccc4)nc3c3ccccc3n12)N1CC=C(c2ccccc2)CC1` the same measures were -13.6%, 2.73%, -7.21%, -5% and -11.8%.
For `Cc1ccc(S(=O)(=O)Nc2ccccc2N2CCCCC2)s1` the same measures were 2.11%, -0.787%, 11.5%, -13.6% and -1.89%.
Consider `CCN1C(=O)c2c(C(=O)NCc3cc(Br)ccc3OC)ncn2CC1(C)C(=O)NC1CCCC1` (stereo not drawn), for which the activity change, negative = inhibition was -9.37% in experiment [1]; 4.63% in experiment [2]; 2.71% in experiment [3]; 1.44% in experiment [4]; -0.608% in experiment [5].
For `O=c1c2ccccc2n2c(SCc3ccccc3)nnc2n1Cc1ccc(F)cc1`, the activity change, negative = inhibition in experiment [1] turned out to be 4.4%; in experiment [2], 0%; in experiment [3], 5.41%; in experiment [4], 1.34%; in experiment [5], 2.12%.
Regarding `O=C(c1cc(F)ccc1F)N1CCC(Cc2noc(C3CC3)n2)C1` (stereo not drawn), the activity change, negative = inhibition is -2.15% in experiment [1]; -1.4% in experiment [2]; 0.116% in experiment [3]; -3.17% in experiment [4]; -1.62% in experiment [5].
Take `CC1=C2CC(O)(C(C)(C)O)C(O[C@@H]3O[C@H](CO)[C@@H](O)[C@H](O)[C@H]3O)CC(C)C2CC1=O` (stereo partly drawn): the activity change, negative = inhibition in experiment [1] is -0.514%; in experiment [2] it was -0.663%; in experiment [3], 10.5%; in experiment [4], -9.86%; in experiment [5] it was -7.71%.
`O=C1CN(Cc2cccc(Br)c2)S(=O)(=O)c2ccccc2N1Cc1ccccc1F`: the activity change, negative = inhibition in experiment [1] stood at 16.5%; in experiment [2] it was 2.31%; in experiment [3] it was 12.4%; in experiment [4] it was 7.4%; in experiment [5] it was 10.3%.
For `COc1ccc(NC(=O)N2Cc3[nH]cnc3C[C@H]2c2nc(-c3ccc(C(F)(F)F)cc3)no2)cc1` the same measures were -8.31%, -10.4%, -6.45%, -21.9% and -2.32%.
Take `O=C(Nc1ccccc1)N1Cc2c(sc3c2CCCC3)-n2cccc2C1c1ccccc1` (stereo not drawn): the activity change, negative = inhibition in experiment [1] is -0.964%; in experiment [2] it was 0.085%; in experiment [3], 2.98%; in experiment [4], -2.84%; in experiment [5] it was 3.78%.
Consider `CCCn1c(=O)c2cc(Cl)ccc2n2c(=O)n(CC(=O)c3ccc(C)cc3)nc12`, for which the activity change, negative = inhibition in experiment [1] was 9.18%; in experiment [2], 0.043%; in experiment [3] it was 4.88%; in experiment [4] it was 10%; in experiment [5], 8.19%.
For `COC(=O)c1cc2n(n1)CCCN(C(=O)c1cc(C)nc3ccc(C)cc13)C2`, the activity change, negative = inhibition in experiment [1] was -1.02%; in experiment [2], -6.65%; in experiment [3], 0.168%; in experiment [4], -8.13%; in experiment [5], -5.22%.
For `Fc1ccccc1OCc1nc(C2CCCNC2)no1` (stereo not drawn) the same measures were -4.42%, -10.2%, -4.97%, -10% and -13%.
For `Cc1ccc(C(=O)N2CC[C@H](N3CCN(C)CC3)[C@H](CCCO)C2)cc1C`, the activity change, negative = inhibition in experiment [1] was -4.5%; in experiment [2] it was -3.85%; in experiment [3], -2.08%; in experiment [4] it was -5%; in experiment [5] it was 7.66%.
